Experimental findings from the supplement of paper PMC9446081 are described below.

Among all 39,000 compounds or so, about 220 (0.56%) showed activity. The list shows a part of the results.
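Note: static incubation at 37 °C against the wild-type strain, values averaged over two biological replicates.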

The assay concerns Escherichia coli K-12 BW25113. Description: relative growth (OD600 normalised to plate interquartile mean) (fraction); higher = less growth inhibition, active = 0.2 or less. The settings on record: 50 µM; LB; incubation time: overnight (16-24 h).
Turning to `CO[C@@H]1CN(C)C(=O)c2ccc(NS(=O)(=O)c3cn(C)cn3)cc2OC[C@H](C)N(Cc2cccc(F)c2)C[C@@H]1C`, the relative growth was inactive: 0.986.

As to `O=C(Nc1ccc(Cl)cc1)Nc1ccc(Cl)c(Cl)c1`, the relative growth is inactive: 0.92.

In the case of `COc1cccc(CN(C)C[C@H]2OCc3ccccc3-c3c(n(C)c4ccccc34)C(=O)N([C@H](C)CO)C[C@@H]2C)c1`, the relative growth was inactive: 0.993.

In the case of `C[C@@H]1CN([C@H](C)CO)C(=O)c2cc(NC(=O)Nc3ccc(C(F)(F)F)cc3)ccc2O[C@@H]1CN(C)Cc1ccc(C(=O)O)cc1`, the relative growth was inactive: 0.99.

Take `Cc1ccc(S(=O)(=O)Nc2ccc3c(c2)CC(=O)N([C@H](C)CO)C[C@H](C)[C@@H](CN(C)S(=O)(=O)c2cccs2)O3)cc1`: the relative growth was inactive: 1.02.

With `COc1ccc(S(=O)(=O)Nc2cccc3c2O[C@H](CN(C)Cc2ccc(Cl)c(Cl)c2)[C@@H](C)CN([C@H](C)CO)C3=O)cc1`, the relative growth is inactive: 0.914.

In the case of `O=C(C[C@H]1NCCNC1=O)Nc1ccccc1`, the relative growth is inactive: 0.998.

Regarding `C[C@@H]1CN([C@@H](C)CO)C(=O)Cc2cc(NC(=O)CCCN(C)C)ccc2O[C@H]1CN(C)S(=O)(=O)c1ccc(Cl)cc1`, the relative growth is inactive: 1.02.

In the case of `C[C@@H]1CN([C@H](C)CO)S(=O)(=O)c2ccc(C#CC3(O)CCCC3)cc2O[C@@H]1CN(C)C(=O)Cc1ccncc1`, the relative growth was inactive: 0.981.

For the compound `O=C1CCSc2ccc(F)cc21`, the relative growth was inactive: 0.976.

As to `O=C(C[C@@H]1C[C@H]2c3cc(NC(=O)NC4CCCC4)ccc3O[C@H]2[C@@H](CO)O1)NCc1ccc(Oc2ccccc2)cc1`, the relative growth was inactive: 0.975.

In the case of `Cc1cc(=O)n2nc(S(C)(=O)=O)nc2[nH]1`, the relative growth is inactive: 0.996.

For the compound `C[C@H](CO)N1C[C@H](C)[C@@H](CN(C)C(=O)Nc2ccccc2)Oc2c(NC(=O)C3CCOCC3)cccc2C1=O`, the relative growth is inactive: 0.991.

As for `O=C(C[C@@H]1CC[C@H]2[C@@H](COC[C@H](O)CN2S(=O)(=O)c2ccc(Cl)cc2)O1)N[C@@H]1CCN(Cc2ccccc2)C1`, the relative growth is inactive: 0.991.

On to `C[C@H](CO)N1C[C@H](C)[C@@H](CN(C)Cc2ccc(Cl)c(Cl)c2)Oc2c(NC(=O)Nc3ccc(C(F)(F)F)cc3)cccc2C1=O`, for which the relative growth was inactive: 0.914.

For `C[C@H]1CN([C@@H](C)CO)S(=O)(=O)c2ccc(C#Cc3ccccc3F)cc2O[C@@H]1CN(C)C(=O)Cc1ccncc1`, the relative growth is inactive: 0.996.

For the compound `CCC(=O)OC(OP(=O)(CCCCc1ccccc1)CC(=O)N1CC(C2CCCCC2)CC1C(=O)[O-])C(C)C.[Na+]` (stereo not drawn), the relative growth is inactive: 1.01.

Regarding `C[C@@H]1CCCCO[C@@H](CN(C)C(=O)Nc2ccc(F)cc2)[C@H](C)CN([C@H](C)CO)C(=O)c2cc(NS(=O)(=O)c3ccc(F)cc3)ccc2O1`, the relative growth is inactive: 1.01.
